Structures are written as SMILES. Among all 310,000 compounds or so, about 2,200 (0.71%) showed an effect of 50% or more. Effects have a minus sign here. The list shows a part of the results.

Chain of human ether-à-go-go-related gene (hERG) potassium channel (Q12809 whole entry, looked up): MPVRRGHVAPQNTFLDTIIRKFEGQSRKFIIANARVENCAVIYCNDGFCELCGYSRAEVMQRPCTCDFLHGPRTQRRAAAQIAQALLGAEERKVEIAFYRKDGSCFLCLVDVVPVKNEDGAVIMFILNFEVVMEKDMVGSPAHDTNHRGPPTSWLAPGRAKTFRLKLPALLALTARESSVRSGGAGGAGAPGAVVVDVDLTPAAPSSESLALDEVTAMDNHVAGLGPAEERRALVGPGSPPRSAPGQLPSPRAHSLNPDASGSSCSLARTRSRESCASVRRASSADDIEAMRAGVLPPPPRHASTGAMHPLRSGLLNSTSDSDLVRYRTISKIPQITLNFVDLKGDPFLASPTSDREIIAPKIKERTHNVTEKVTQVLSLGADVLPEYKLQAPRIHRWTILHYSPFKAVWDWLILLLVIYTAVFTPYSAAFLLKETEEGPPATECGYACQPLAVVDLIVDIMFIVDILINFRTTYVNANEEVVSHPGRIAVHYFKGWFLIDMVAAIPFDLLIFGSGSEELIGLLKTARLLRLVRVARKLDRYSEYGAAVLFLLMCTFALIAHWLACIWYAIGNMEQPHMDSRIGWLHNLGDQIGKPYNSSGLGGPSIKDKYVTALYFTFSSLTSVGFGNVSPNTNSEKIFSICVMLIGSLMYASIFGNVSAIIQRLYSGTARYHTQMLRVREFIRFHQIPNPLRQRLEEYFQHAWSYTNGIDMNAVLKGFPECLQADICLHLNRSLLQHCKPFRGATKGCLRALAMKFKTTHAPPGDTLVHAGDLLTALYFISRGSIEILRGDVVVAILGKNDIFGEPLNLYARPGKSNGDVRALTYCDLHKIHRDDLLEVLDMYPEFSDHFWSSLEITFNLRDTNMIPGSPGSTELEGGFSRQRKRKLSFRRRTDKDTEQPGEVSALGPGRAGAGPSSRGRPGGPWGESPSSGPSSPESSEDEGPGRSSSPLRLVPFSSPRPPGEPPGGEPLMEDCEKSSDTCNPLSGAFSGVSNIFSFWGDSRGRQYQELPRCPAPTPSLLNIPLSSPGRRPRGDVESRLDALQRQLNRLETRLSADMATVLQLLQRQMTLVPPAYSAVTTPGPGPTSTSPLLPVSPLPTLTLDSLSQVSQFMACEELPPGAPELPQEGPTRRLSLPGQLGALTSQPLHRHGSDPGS

This assay addresses human ether-à-go-go-related gene (hERG) potassium channel (human, UniProt Q12809). In words: primary screen, population patch clamp on CHO cells stably expressing hERG.
Consider `N#Cc1ccccc1S(=O)(=O)N1CCN(C(=O)c2cc(-c3ccccc3)nn2-c2ccccc2)CC1`, for which the “hERG current change (%, negative = inhibition) at 1uM” value was 18.9%.
To `COC(c1ccccc1)c1nnc(CCC(=O)NCc2ccc3ncccc3c2)o1` (stereo not drawn) belongs -11.5%.
For `O=C(CS(=O)(=O)c1ccc(F)cc1)Nc1nnc(-c2cccs2)o1`, the “hERG current change (%, negative = inhibition) at 1uM” value is given as 11.2%.
To `OCCOCCNc1ncnc2c1cnn2-c1ccccc1` belongs 8.5%; to `CC(C)n1c(-c2ccncc2)n[nH]c1=S`, 11.8%; to `CC1CN(C(=O)COC(=O)c2ccc(N)c([N+](=O)[O-])c2)CC(C)O1` (stereo not drawn), 2.31%.
Take `CCOc1cc(C2C(C#N)=C(N)OC3=C2C(=O)CC(C)(C)C3)cc([N+](=O)[O-])c1O` (stereo not drawn): the “hERG current change (%, negative = inhibition) at 1uM” value came to 6.51%.
Then `CC(=O)NC(Cc1ccc(F)c(F)c1)C(=O)NC1CCN(c2nnnn2-c2ccccc2)CC1` (stereo not drawn), with 1.39%; and `COc1ccc(CNC(=O)c2cnccn2)cc1`, with 2.57%.
To `O=S(=O)(NCc1ccc(F)cc1)c1ccc(Br)cc1Br` belongs 14.3%; to `O=C(O)CCn1c(=O)c2ccccc2c2ccccc2c1=O`, 7.1%; to `COc1cccc(OC)c1C(=O)N1CCN(Cc2ccncc2)CC1`, -2.4%.
With `COc1ccc(NC(=O)CN2C(=O)COc3ccc(S(=O)(=O)N4CCOCC4)cc32)cc1Cl`, the “hERG current change (%, negative = inhibition) at 1uM” value was 10%.
To `Cc1ccc(NC(=O)C(=O)NCC2CCCN2S(=O)(=O)c2cccs2)cc1C` (stereo not drawn) belongs 9.36%.
With `Cc1oc2cc3oc(=O)c(CC(=O)N[C@H](C(=O)N[C@@H](C(=O)O)c4ccccc4)C(C)C)c(C)c3cc2c1C`, the “hERG current change (%, negative = inhibition) at 1uM” value was found to be 1.62%.
To `Cc1ccc(NS(=O)(=O)c2ccc(OCC(=O)NCc3cccnc3)cc2)cc1` belongs -2.13%.
To `COC(=O)CC1COc2ccccc2N1C(=O)c1cc(OC)c(OC)c(OC)c1` (stereo not drawn) belongs 13.1%.
Consider `COCCNC(=O)COC(=O)CSCc1nc2ccccc2s1`, for which the “hERG current change (%, negative = inhibition) at 1uM” value is given as -1.22%.
To `NC(=O)c1ccccc1NC(=O)c1ccc2c(c1)OCO2` belongs 16%.
To `N#Cc1nc(-c2ccc([N+](=O)[O-])cc2)oc1N1CCCCC1` belongs 12.3%.
To `CCOC(=O)C1CCCCN1Cc1cccc(F)c1` (stereo not drawn) belongs 16.9%; to `C=CCc1ccc(OCCOCCNCCOC)c(OC)c1`, 11.7%; to `COc1ccc(OC)c(NC(=O)CN2C(=O)COc3ccc(C)cc32)c1`, 7.48%.
Turning to `CCOc1ccc(-c2c(C(=O)N/N=C/c3ccco3)nnn2-c2nonc2N)cc1`, the “hERG current change (%, negative = inhibition) at 1uM” value came out at 21.6%.

(Values after PMC4336329 (PLoS ONE, 2015).)
